Test results as given in PubChem BioAssay AID1347073 (National Center for Advancing Translational Sciences (NCATS), 2019).
The whole screen tested about 45,000 compounds, of which about 200 (0.44%) were called active. Another 7% or so got no clear call; they are omitted. The call rests on the fitted dose curve; in most records, active means well fitted activation curve with a large enough effect; inconclusive means small, poorly fitted or top-dose-only effect; inactive means no such curve, though single readings can be large or run the other way. This is one part of the list.

Experiment: qHTS of TDP-43 Inhibitors: NCGC Sytravon Library Screen; further: 0% is about no effect; nearly all actives have a fitted effect of over 55% in size
Conditions: yeast TDP-43 toxicity rescue, BacTiter-Glo growth, 24 h; series mostly up to 46.1 µM; growth rescue (activation): at the top concentration
Procedure, shortened: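 TDP-43-expressing yeast, pregrown in raffinose, seeded at OD600 0.02 in galactose medium with compound for 24 hr at 30 deg C. Growth read by BacTiter-Glo luminescence, so rescue of toxicity appears as activation.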

SMILES	growth rescue (activation)
COc1ccc(CNC(=O)CCc2c[nH]c3ccccc23)cc1	inactive: 11.6%
C=CCN(C(=O)c1ccccc1)C1CCS(=O)(=O)C1 (centres undefined)	inactive: -15%
COc1ccc(/C=C/C(=O)Nc2cc(=O)n(C)c(=O)n2C)cc1	inactive: 20.1%
CCNC(=S)N(CCc1c(C)[nH]c2ccc(OC)cc12)Cc1cccnc1	inactive: 11.5%
CO/N=C/C(=N\Nc1ccc(C)cc1)C(=O)c1ccc(OC)cc1	inactive: 6.76%
NC(=O)C1CCN(C(=O)CCC(=O)c2cccs2)CC1	inactive: -16.9%
CC(NC(=O)C1CCC1)c1ccc(Br)cc1 (centres undefined)	inactive: 31.2%
CC(C)=CC(=O)Nc1c(C)cc(C)cc1Cl	inactive: -12.3%
CCn1c(=O)c(C(=O)NNC(=O)Cc2ccccc2)c(O)c2ccccc21	inactive: -6.87%
Cc1nnc(SCC(=O)Nc2ccc3c(c2)OCO3)s1	inactive: -19%
O=C(COC(=O)c1ccccc1O)Nc1ccc2ccccc2c1	inactive: -0.401%
Cc1cccc(C(=O)NNC(=O)c2c(-c3ccccc3Cl)noc2C)c1O	inactive: 17.8%
COC(=O)CN1C(=O)c2cccc3cccc1c23	inactive: 9.65%
Cc1nn(-c2ccccc2)c(C)c1C(=O)NCc1ccccc1F	inactive: 22.6%
CN(C)C(=O)CSc1nnc(Cc2ccc3c(c2)OCO3)o1	inactive: -3.58%
O=S(=O)(Nc1nccs1)c1ccc(NS(=O)(=O)c2c(F)cc(F)c(Cl)c2F)cc1	inactive: 5.51%
C/C(CC(C)C)=N\Oc1nc(C)cc(C)n1	inactive: 31.5%
COc1cc(/C=N/NC(N)=O)ccc1OC(=O)c1ccco1	inactive: 1.87%
CCOc1ccc(Cl)cc1-c1cc(C(=O)NCCc2ccncc2)[nH]n1	inactive: 6.11%
COc1ccccc1OCc1ccc(C(=O)NC(C)c2ccccc2)o1 (centres undefined)	inactive: -10.7%
COc1cccc(CN2CCC(C(=O)N3CCN(c4ccccc4F)CC3)CC2)c1	inactive: 2.98%
Cc1ccc(C)c(NC(=O)CN(C)C(=O)[C@@H](NC(N)=O)C(C)C)c1	inactive: 2.15%
CCCNC(=O)COC(=O)c1c2c(nc3ccccc13)CCC2	inactive: 6.18%
COc1cccc(NC(=S)N2CCCN(Cc3ccc(F)cc3)C2)c1	inactive: -14.7%
Cc1ccn2c(CNCC3OCCc4ccccc43)c(C(=O)N3CCCCCC3)nc2c1 (centres undefined)	inactive: 6.55%
Cc1cc(C)c2c(c1)NC(C(=O)O)C1CC=CC21 (centres undefined)	inactive: -7.07%
Cc1noc(N)c1C1(O)C(=O)N(C(C)C)c2ccccc21 (centres undefined)	inactive: 3.13%

SMILES	growth rescue (activation)
O=C(COC(=O)c1cc[n+]([O-])cc1)Nc1ccc([N+](=O)[O-])cc1C(F)(F)F	inactive: 13.3%
Cc1ccc(C(=O)NCCNC(=O)COc2ccc(C)c(C)c2)cn1	inactive: 0.327%
Cc1ccc(S(=O)(=O)Nc2ccccc2C(=O)N2CCCCC2C)c(C)c1NS(C)(=O)=O (centres undefined)	inactive: 0.194%
O=C(NCc1ccccc1)C(c1ccncc1)N(C(=O)c1csnn1)c1ccccc1F (centres undefined)	inactive: -4.18%
CC(=O)Nc1ccc(/C=C(\C#N)C(=O)NC2CCCCC2C)cc1 (centres undefined)	inactive: -7.89%
CCOc1ccc(-c2cc(C(=O)NCc3cc(C(F)(F)F)cc(C(F)(F)F)c3)[nH]n2)c(C)c1	inactive: 1.29%
CCN(C(=O)c1ccc(Cl)cc1[N+](=O)[O-])c1ccccc1C	inactive: 13.9%
Nc1c(-c2cccc(Cl)c2)cnc2c(-c3ccccc3)cnn12	inactive: 13.3%
COc1ccc(/C=C(\C#N)C(=O)NCCCn2ccnc2)cc1	inactive: -6.51%
CC(=O)Nc1cccc(Oc2nc(C(F)(F)F)nc3ccccc23)c1	inactive: -0.356%
CC(C)(C)NC(=O)C(c1ccncc1)N(CC1CCCO1)C(=O)Cn1nnc(-c2ccc(F)cc2)n1 (centres undefined)	inactive: -28.7%
CC(C)c1cc(C(=O)N2CCN(C(c3ccccc3)c3ccccc3)CC2)no1	inactive: 13.6%
O=C(COc1ccccc1O)NCCN1CCOCC1	inactive: -1.55%
CCCCC1N2CC3([N+](=O)[O-])CN1CC([N+](=O)[O-])(C2)C3(C)C (centres undefined)	inactive: -17.3%
N#CC1=C(O)C(c2ccccc2)n2c1nc(=O)c1ccccc12 (centres undefined)	inactive: 21.8%
COc1ccc(NC(=O)c2ccc(NC(=O)CN3CCC(C(N)=O)CC3)cc2)cc1	inactive: 7.62%
Cc1ccc(NC(=O)COc2nsnc2N2CCOCC2)cc1Cl	inactive: 3.55%
CC(=O)C1=C(NC(=O)c2ccc(C(F)(F)F)cc2)C[C@@H]2[C@H]1C2(C)C	inactive: -6.45%
CCOC(=O)N1CCC(NC(=O)c2cc(-c3ccc(F)cc3)[nH]c2C)CC1	inactive: -13.6%
CCn1nc(C)c(CNCc2cn[nH]c2-c2cc3ccccc3o2)c1C	inactive: 32.9%
O=C(c1ccccc1)N(Nc1ccccc1)c1ccccc1	inactive: 17.3%
COc1ccc(/C=N/N=C2\SC(CC(=O)O)C(=O)N2c2ccccc2)cc1 (centres undefined)	inactive: 15.3%
COc1ccc(CN(CC(=O)NCc2ccc(F)cc2)C(=O)CCC(=O)Nc2nccs2)cc1	inactive: -15.7%
O=C(CCc1nnc(CCCc2ccccc2)o1)NCCN1CCOC1=O	inactive: 1.98%
CCCCc1ccc(NC(=S)NN2CCOCC2)cc1	inactive: 24.1%
OCCNc1ncnc2c1ncn2[C@H]1CN(Cc2ccncc2)C[C@@H](CO)O1	inactive: 5.14%
O=C(N/C(=C/c1ccc(Br)cc1)C(=O)N1CCCC1)c1cccs1	inactive: 10.5%
